The campaign covered roughly 410,000 compounds. About 6,400 (1.6%) were called active. The shares of active, inactive and inconclusive entries below differ from those in the screen. Calls follow the shape of the dose curve; as a rule, active = well fitted inhibition curve with a large enough effect; inconclusive = small, poorly fitted or top-dose-only effect; inactive = no such curve, though single readings can be large or run the other way. Potencies of inconclusive entries are left out as doubtful fits.
Each molecule was assayed against Glucagon-like peptide 1 receptor (Homo sapiens) (UniProt P43220) (assay: qHTS of GLP-1 Receptor Inverse Agonists (Inhibition Mode)). Settings: HEK293 GLP-1R CRE-luciferase, luminescence, 24 h, GLP-1R form is constitutively active; activity change, negative = inhibition: at 38.3 µM (top of the series) unless noted.
Chain of UniProt P43220 (P43220 whole entry, looked up): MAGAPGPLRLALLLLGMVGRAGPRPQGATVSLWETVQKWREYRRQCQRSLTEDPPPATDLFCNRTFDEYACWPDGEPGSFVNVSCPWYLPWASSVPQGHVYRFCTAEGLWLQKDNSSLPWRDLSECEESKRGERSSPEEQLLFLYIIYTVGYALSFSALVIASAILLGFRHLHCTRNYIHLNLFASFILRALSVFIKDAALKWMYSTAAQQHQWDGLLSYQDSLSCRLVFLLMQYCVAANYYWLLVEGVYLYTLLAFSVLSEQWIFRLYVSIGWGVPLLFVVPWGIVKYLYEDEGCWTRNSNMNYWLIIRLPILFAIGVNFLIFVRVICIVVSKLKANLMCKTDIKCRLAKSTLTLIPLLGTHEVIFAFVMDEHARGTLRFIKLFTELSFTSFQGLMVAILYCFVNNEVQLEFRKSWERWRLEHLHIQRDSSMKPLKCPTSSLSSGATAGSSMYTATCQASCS
Method in brief: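 Luminescence readout: a drop in cAMP-driven luciferase signal flags inverse agonism at a constitutively active GLP-1R stably expressed in HEK293. Compound exposure lasted 24 hr at 37 deg C, 5% CO2.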
For `Cc1ccc(-c2c[n+](CC(=O)Nc3nc(-c4ccccc4)cs3)c3n2CCC3)cc1`, the “activity change, negative = inhibition” value was inactive: -0.445%.
`O=C1Cc2cc(NS(=O)(=O)c3cc(F)ccc3F)cc3c2N1CCC3` was tested, and the “activity change, negative = inhibition” value was inactive: 66.3%.
With `CC(C)(C)C(=O)N(Cc1ccc(Cl)cc1)c1cnccn1` the Potency was inconclusive [inhibitor, single point].
With `Cc1cc(NS(=O)(=O)c2ccc(NC(=O)c3ccco3)cc2)nc(C)n1` the Potency was inconclusive [inhibitor, partial curve, poor fit].
For `Cc1ccc(C)c(S(=O)(=O)ON2C(=O)c3ccccc3C2=O)c1`, the “activity change, negative = inhibition” value was inactive: 13.2%.
`CCc1ccc2[nH]c(=O)c(CN(CCCN3CCOCC3)C(=O)Nc3cccc(Cl)c3)cc2c1` was tested, and the Potency was inconclusive [inhibitor, single point].
With `Cc1cccc(OCC(O)Cn2c(=N)n(Cc3ccccc3)c3ccccc32)c1` (centres undefined) the Potency was inconclusive [inhibitor, single point].
With `CC(NC(=O)c1cccc(S(=O)(=O)N2CCN(Cc3ccccc3)CC2)c1)c1ccc(Br)cc1` (centres undefined) the Potency was inconclusive [inhibitor, single point].
In the case of `Cc1ccc(F)cc1NC(=O)c1ccc(Cn2nc(N3CCN(c4ccccc4)CC3)ccc2=O)o1`, the “activity change, negative = inhibition” value is reported as inactive: -26.9%.
For `N#C/C(=C1/C(=O)Nc2ccc(Br)cc21)c1ccccn1`, the Potency was inconclusive [inhibitor, partial curve, poor fit].
For `CCN(C[C@H]1N[C@@](C)(C(=O)OC)[C@H]2C(=O)N(Cc3ccccc3)C(=O)[C@@H]12)C(=O)Nc1ccc(Cl)cc1`, the Potency was inconclusive [inhibitor, single point].
For `Cc1ccc(S(=O)(=O)N(C)C)cc1NS(=O)(=O)c1ccc(Cl)s1`, the Potency was inconclusive [inhibitor, full curve, poor fit].
In the case of `CCOC(=O)N1CCN(Cc2nc3cc(NC(=O)c4cccs4)ccc3n2CC)CC1`, the Potency is reported as inconclusive [inhibitor, full curve, poor fit].
`Cc1ccc(C2c3[nH]c4ccccc4c3C[C@H]3C(=O)N(c4ccccc4C(=O)NCCCN4CCOCC4)C(=O)N23)cc1` (some centres undefined) was tested, and the Potency was inconclusive [inhibitor, single point].
For `O=C(Cn1c(-c2cccs2)cc2cc(F)ccc21)NCCCN1CCN(c2ccccc2F)CC1`, the Potency was inconclusive [inhibitor, single point].
For `Cc1cc(C)c(S(=O)(=O)/N=C2\C=C(NS(=O)(=O)c3ccccc3)C(=O)c3ccccc32)c(C)c1`, the “activity change, negative = inhibition” value was inactive: -8.5%.
For `O=C(CSc1cccc2cccnc12)Nc1ccccc1F`, the Potency was inconclusive [inhibitor, single point].
For `CCC(C)Oc1ccccc1C1CC(=O)NC2=C1C(=O)CCC2` (centres undefined), the Potency was inconclusive [inhibitor, partial curve, poor fit].
With `Cc1ccc(N2C(=O)N3[C@H](c4ccc(Br)cc4)[C@@H]4C(=O)N(C(C)(C)C)C(=O)[C@@H]4[C@]3(C)C2=O)cc1` the Potency was inconclusive [inhibitor, single point].
With `CCOC(=O)C1CCN(C(=O)Cn2ncc3c4ccccc4n(Cc4ccccc4F)c3c2=O)CC1` the “activity change, negative = inhibition” value was inactive: 35.2%.
In the case of `CCc1c(-c2ccc(Br)cc2)ncn1Cc1cccc(-c2ccccc2)c1`, the Potency is reported as inconclusive [inhibitor, partial curve, poor fit].
`CCc1nc2ccc(C(=O)N3CCN(c4ccccc4)CC3)cn2c1N(CCC(C)C)CCN(C)C` was tested, and the Potency was inconclusive [inhibitor, single point].
`CC1CN(S(=O)(=O)c2ccc(C(=O)N(CCCN(C)C)c3nc4cc5c(cc4s3)OCCO5)cc2)CC(C)O1` (centres undefined) was tested, and the Potency was inconclusive [inhibitor, single point].
In the case of `O=C(NC1CCCCC1)c1ccc(CS(=O)(=O)c2ccc(Cl)cc2)o1`, the Potency is reported as inconclusive [inhibitor, single point].
With `Cc1ccccc1CN1C(=O)CS/C1=N/N=C/c1ccco1` the Potency was inconclusive [inhibitor, single point].
`CCc1nc(OCc2ccco2)c2sc3nc4c(cc3c2n1)COC(C)(C)C4` was tested, and the Potency was inconclusive [inhibitor, full curve, poor fit].
For `O=C(NCc1ccccn1)Nc1cc(Cl)cc(Cl)c1`, the Potency was inconclusive [inhibitor, partial curve, poor fit].
`CCn1c(NCCO)nc2c(c1=O)C(C)(CC)Cc1ccccc1-2` (centres undefined) was tested, and the Potency was inconclusive [inhibitor, single point].
`O=C(NNc1ccc(F)cc1F)c1c(F)cccc1Cl` was tested, and the Potency was inconclusive [inhibitor, full curve, poor fit].
`CC(C)(C)c1cc(NC(=O)c2c(F)cccc2Cl)n(-c2ccccc2)n1` was tested, and the Potency was inconclusive [inhibitor, partial curve, poor fit].
With `CC(NC(=O)c1c2c(nc3ccccc13)C(=O)N(C1CCCCC1)C2)c1ccccc1` (centres undefined) the Potency was inconclusive [inhibitor, partial curve, poor fit].
With `O=C(NC12CC3CC(CC(C3)C1)C2)C1CC(=O)N(c2ccccc2)C1` (centres undefined) the Potency was inconclusive [inhibitor, single point].
For `Cn1c(=O)c2cc(NC(=S)NC3CCCCC3)ccc2n1Cc1ccc(Cl)cc1`, the Potency was inconclusive [inhibitor, single point].
With `COc1ccc(N/N=C/c2c(C(=O)O)ccc3ccccc23)cc1` the Potency was inconclusive [inhibitor, full curve, poor fit].
With `CCCN1CCC(=O)N([C@H](CSc2ccccc2)c2ccccc2)CC1` the Potency was inconclusive [inhibitor, partial curve, poor fit].
With `Cc1cccc(OCC(=O)Nc2ccc3c(c2)nc2n3CCOC2)c1` the “activity change, negative = inhibition” value was inactive: 11.7%.
In the case of `Cc1ccc(OCCCOc2cccc3cccnc23)cc1C`, the Potency is reported as inconclusive [inhibitor, single point].
In the case of `O=C(NCC(=O)N(Cc1ccccc1)C(C(=O)NCC1CCCO1)c1ccccc1)c1ccco1` (centres undefined), the Potency is reported as inconclusive [inhibitor, partial curve, poor fit].
For `CCCc1cc(=O)[nH]c(Nc2ccc(Cl)cc2)n1`, the Potency was inconclusive [inhibitor, partial curve, poor fit].
In the case of `CCc1ccc(NC(=O)CN2CCSc3ccc(S(=O)(=O)N4CCCC4)cc32)cc1`, the Potency is reported as inconclusive [inhibitor, partial curve, poor fit].
In the case of `COC(=O)c1cnn(-c2ccc(C(=O)Nc3ccc(OC(F)(F)F)cc3)cc2)c1N`, the Potency is reported as inconclusive [inhibitor, single point].
In the case of `COc1ccc(/C=C/C(=O)c2ccc(OC)cc2OC)cc1`, the Potency is reported as inconclusive [inhibitor, single point].
For `O=C1CN(C(=O)c2cc3ccccc3oc2=O)C(c2ccc(F)cc2)c2cc(Br)ccc2N1` (centres undefined), the Potency was inconclusive [inhibitor, single point].
For `OCC1(Cc2ccccc2)CCN(Cc2cnc(-c3ccc(Cl)cc3)nc2)CC1`, the Potency was inconclusive [inhibitor, partial curve, poor fit].
`CCCCN(CC)C(=O)c1ccccc1Oc1ccccc1` was tested, and the Potency was inconclusive [inhibitor, partial curve, poor fit].
`CC(C)N(C(=O)[C@H]1C[C@H](CC(=O)NCCCN(C)C)C(=O)N2CCc3c([nH]c4cc(-c5ccco5)ccc34)[C@]12C)C(C)C` was tested, and the Potency was inconclusive [inhibitor, single point].
`c1ccc(CN2CCC(N3CCC(N4CCCCCC4)CC3)CC2)cc1` was tested, and the Potency was inconclusive [inhibitor, partial curve].
`CN(CC(=O)NCC(c1ccccc1)N1CCCC1)S(=O)(=O)c1ccc(Cl)cc1` (centres undefined) was tested, and the Potency was inconclusive [inhibitor, partial curve, poor fit].
`Cc1ccc(S(=O)(=O)N2CCCCC2)cc1NC(=O)COC(=O)C1CC2C=CC1C2` (centres undefined) was tested, and the Potency was inconclusive [inhibitor, partial curve, poor fit].
With `O=C(Nc1cccc(-c2nc3ccccc3s2)c1)c1cccs1` the Potency was inconclusive [inhibitor, single point].
For `COc1ccc(C(CNC(=O)c2cccc([N+](=O)[O-])c2)N2CCOCC2)cc1` (centres undefined), the “activity change, negative = inhibition” value was inactive: 10.9%.
In the case of `O=[N+]([O-])c1cc(C(F)(F)F)ccc1Sc1ccccn1`, the Potency is reported as inconclusive [inhibitor, single point].
`O=C(CCCN=C1NS(=O)(=O)c2ccccc21)Nc1ccc(Cl)cc1` was tested, and the Potency was inconclusive [inhibitor, single point].
With `CCOC(=O)/C=C(\C)Sc1cc(=O)oc2ccccc12` the Potency was inconclusive [inhibitor, single point].
In the case of `COc1ccc(-c2nc3ccccc3c(=O)n2CC(C)C)cc1`, the activity change, negative = inhibition is reported as inconclusive: -64.7% [inhibitor].
`COc1ccc(C(=O)OCC(=O)Nc2ccc(Cl)c(C(F)(F)F)c2)c(OC)c1OC` was tested, and the Potency was inconclusive [inhibitor, single point].
In the case of `CCCCCNC(=O)c1ccc2c(=O)[nH]c3c(C(=O)NCC4CCCO4)sc(=S)n3c2c1` (centres undefined), the Potency is reported as inconclusive [inhibitor, partial curve, poor fit].
In the case of `CCOC(=O)/C(=N\Nc1cc(Cl)ccc1Cl)N1CCN(C)CC1`, the Potency is reported as active: 10 µM.
`COc1ccc(N2CC(C(=O)Nc3cc(C(F)(F)F)ccc3N3CCCC3)CC2=O)c(OC)c1` (centres undefined) was tested, and the Potency was inconclusive [inhibitor, partial curve, poor fit].
% is scaled to controls: 0 for no effect and ±100 for the full control effect; potency is read from the fitted curve at half-maximal effect; tags tell the direction and shape of the fitted curve.
Also: nearly all actives have a fitted effect of over 55% in size.
